Data: PubChem BioAssay AID1671194 (National Center for Advancing Translational Sciences (NCATS), 2021)
Screen size: about 140,000 compounds; about 240 (0.17%) were called active. The shares of active, inactive and inconclusive entries below differ from those in the screen. The call rests on the fitted dose curve; in most records, active means well fitted inhibition curve with a large enough effect; inconclusive means small, poorly fitted or top-dose-only effect; inactive means no such curve, though single readings can be large or run the other way. A potency beside an inconclusive call is a rough fit, not a confirmed value.

experiment: Primary qHTS assay for inhibitors of alpha-synuclein gene (SNCA) expression; conditions: HEK-293 SNCA-luciferase knock-in, luminescence, 24 h; series mostly up to 57.2 µM; further: nearly all actives have a fitted effect of over 45% in size
Potency means the concentration at half of the fitted maximal effect; tags describe the fitted curve by direction and shape.

SMILES	Potency
COc1ccc(C(=O)N[C@H]2C[C@H]3C(=O)Nc4ccc(-c5cccs5)cc4C(=O)N3C2)cc1	inactive
c1ncc(-c2ccc(-c3noc([C@@H]4CCCN4Cc4ccc5c(c4)OCO5)n3)cn2)cn1	inconclusive: 44.7 µM [inhibitor, partial curve, poor fit]
COc1cc(C(=O)NC2CC(=O)N(c3cccc(F)c3)C2)cc(OC)c1OC (centres undefined)	inconclusive: 25.1 µM [inhibitor, partial curve, poor fit]
Cc1ccc(-c2nc(C3CC(=O)N(c4ccc(F)cc4)C3)no2)cc1C (centres undefined)	inconclusive: 39.8 µM [inhibitor, single point]
O=C(c1cncc(F)c1)N1CCOCC2(CN(Cc3ccccc3)C2)C1	inconclusive: 56.2 µM [inhibitor, single point]
COC(=O)C(=O)N[C@H]1C[C@@H](Cc2cc(-c3ccc(OC)cc3)on2)C1(C)C	inactive
COc1ccc(CCNC(=O)c2cc(Sc3cccc(Cl)c3)nc3ccccc23)cc1OC	inconclusive: 12.6 µM [inhibitor, partial curve, poor fit]
O=C(c1ccc(F)cc1)N1CCc2nc(C3CC3)nc(-c3ccc(Cl)cc3)c2C1	inactive
O=C(CCCc1ccccc1)N1CCC2(CC1)CN(c1ccncn1)CC2CO (centres undefined)	inconclusive: 17.8 µM [inhibitor, partial curve, poor fit]
Cc1ccc(CNC(=O)CN2C(=O)NC3(CCOCC3)C2=O)cc1	inconclusive: 3.16 µM [inhibitor, single point]
CCc1ccc(N2CCn3c2nc2c3c(=O)n(Cc3cccc(C)c3)c(=O)n2C)cc1	inconclusive: 7.08 µM [inhibitor, single point]
CN1CC[C@@]2(CCCN(C(=O)c3cccc(F)c3)C2)C1	inconclusive: 14.1 µM [inhibitor, partial curve]
O=C(O)Cn1nc(C2CC2)nc1CCCN1CCCC1=O	inconclusive: 7.08 µM [inhibitor, single point]
CCN(CC)c1ccc(NS(=O)(=O)c2ccc3c(c2)CCCN3C(C)=O)c(C)c1	inconclusive: 20 µM [inhibitor, single point]
CN(CC(=O)N1CCc2nc3cc(-c4ccccc4)[nH]n3c(=O)c2C1)S(=O)(=O)c1cnc[nH]1	inconclusive: 28.2 µM [inhibitor, single point]
O=C(Nc1ccc(Cl)cc1)Nc1ccc2n(c1=O)C[C@H]1C[C@@H]2CN(C(=O)c2ccc3ccccc3c2)C1	inconclusive: 39.8 µM [inhibitor, single point]
N#Cc1ccc(C(=O)N2CCN(c3nc4ccc(F)cc4s3)CC2)cc1	inconclusive: 22.4 µM [inhibitor, single point]
Cc1nc(C)c(C(=O)N2CCC(Oc3ccc(-c4noc(C5CC5)n4)cc3)C2)s1 (centres undefined)	inactive
O=C(Nc1cccc(F)c1)N1CCC2(CCNCC2)CC1	inconclusive: 39.8 µM [inhibitor, single point]
CCc1ccc(Nc2cc(C)nc3nc(Cc4ccc(Cl)cc4)nn23)cc1	inconclusive: 28.2 µM [inhibitor, single point]

SMILES	Potency
COc1ccc(OCC(=O)N2CCCC3(C2)Nc2cccnc2NC3=NC2CCCC2)cc1 (centres undefined)	inactive
COc1ccc(C(=O)N[C@@H]2CCC[C@@H]2C(=O)NCc2ccc(C)c(C)c2)cc1	inactive
COc1ccc(-c2nccn3cc(C(=O)NCc4ccc(OC)c(OC)c4)nc23)cc1	inconclusive: 10 µM [inhibitor, partial curve, poor fit]
COc1cc(NC(=O)C2CCN(S(=O)(=O)c3c(C)noc3/C=C/c3cccs3)CC2)cc(OC)c1	inconclusive: 1 µM [inhibitor, partial curve, poor fit]
COC(=O)c1ccc(C2C=C(c3ccc(Cl)cc3)Nc3nc4ccccc4n32)cc1 (centres undefined)	inconclusive: 39.8 µM [inhibitor, single point]
Cn1cccc1CN1CCC2(CC1)C(=O)NCN2Cc1ccc(Cl)cc1	inconclusive: 39.8 µM [inhibitor, single point]
OC[C@@H]1CN(c2ccc(-c3nc(-c4cccc(C(F)(F)F)c4)no3)cn2)C[C@H]1CO	inactive
O=C1Nc2ccc(-c3ccccc3)cc2C(=O)N2CC[C@H](NS(=O)(=O)c3cccs3)[C@@H]12	inconclusive: 39.8 µM [inhibitor, single point]
O=C(NCC(c1cccnc1)N1CCc2ccccc21)c1ccc(F)c(F)c1 (centres undefined)	inconclusive: 12.6 µM [inhibitor, partial curve]
COCCN1CCCC1c1nc(C2CN(C(=O)c3ccccc3OC)C2)no1 (centres undefined)	inconclusive: 25.1 µM [inhibitor, partial curve, poor fit]
Cc1noc(-c2ccc3c(c2)OCO3)c1C(=O)NCc1cc(F)cc(F)c1	inactive
O=C1CCN(C(=O)[C@@H](Cc2ccccc2)NC(=O)C2CCCCC2)CCOCCN1	inconclusive: 6.31 µM [inhibitor, single point]
COc1ccc(NC(=O)C2CCCN(C(=O)c3cnn(-c4ccccc4)c3-n3cccc3)C2)cc1 (centres undefined)	inconclusive: 2.82 µM [inhibitor, single point]
O=C(COc1ccc(F)cc1)N1CCC(Cc2nncn2Cc2ccccc2)C1 (centres undefined)	inconclusive: 7.08 µM [inhibitor, partial curve]
O=C1CCN(C(=O)C2CCN(S(=O)(=O)c3cccs3)CC2)CCCCCCN1	inactive
Cc1noc(C2CC3(CCN(C(=O)c4cnccn4)CC3)CN2C)n1 (centres undefined)	inconclusive: 39.8 µM [inhibitor, single point]
O=C(Nc1ccc(F)cc1)c1ccc(Cn2nc(N3CCN(c4ccccc4)CC3)ccc2=O)o1	inconclusive: 39.8 µM [inhibitor, single point]
CCOC(=O)c1c(C)[nH]c(C)c1S(=O)(=O)N1CCC(C(=O)N2CCN(c3cccc(C)c3C)CC2)CC1	inconclusive: 11.2 µM [inhibitor, partial curve, poor fit]
COc1ccccc1-c1cccc(C(=O)N2CCC[C@H]2C(=O)NCc2cccs2)c1	inactive
